Reference: patent US20230416345A1 (NAVIGO PROTEINS, published 2023)

Columns and labels:
[1] = biological target: T1, human collagen type I (human, UniProt P02452 partial chain; P08123 80-1119); test: ELISA, h Col I coated on the plate, A 450-600 nm
T1 construct: Bought; also called h Col I; type I collagen
Description: (§1) High binding plates (Greiner, 781061) were immobilized with 2.5 μg/ml recombinant human collagen type II (h Col II, Chondrex, CHX-20051), rabbit collagen type II (rbCol II, prepared from rabbit eyes), porcine collagen type II (p Col II, prepared from porcine eyes), human collagen type I, (h Col I, Sigma, C5483-1MG), human collagen type V (h Col V, Abcam, ab7537), human collagen type III (h Col Ill, Abcam, ab7535) and 67B89 (domain of fibronectin, produced in E. coli) respectively over night at 4° C. ELISA-plates were washed 3 times with PBST (PBS+ 0.1% Tween) and blocked with 3% BSA/0.5% Tween/PBS 2 h at RT. […] Plates were washed with PBST and incubated with biotinylated anti-StrepTag-ab (Antikörper-online, ABIN1573895) with a dilution of 1:10.000 for 1 h at rt. The binding was visualized with a-rabbit-IgG-HRP (Sigma, A9169) with a dilution of 1:10.000 and as substrate TMB Plus von KEM EN TEC Diagnostic, Kat-Nr. 4395.
(§2) Results. ELISA analysis clearly confirms the specific binding to type II collagen. […] No unspecific binding to type I collagen, type III collagen, type V collagen or to a domain of fibronectin (67B89) was detected (FIG. 2).

[2] = biological target: T2, human collagen type V (human, UniProt P20908 559-1570; P05997 216-1229); test: ELISA, h Col V coated on the plate, A 450-600 nm
T2 construct: Bought; also called h Col V; type V collagen
Description: as §1, §2

T2 sequence (P20908 559-1570, chain 1 of 2): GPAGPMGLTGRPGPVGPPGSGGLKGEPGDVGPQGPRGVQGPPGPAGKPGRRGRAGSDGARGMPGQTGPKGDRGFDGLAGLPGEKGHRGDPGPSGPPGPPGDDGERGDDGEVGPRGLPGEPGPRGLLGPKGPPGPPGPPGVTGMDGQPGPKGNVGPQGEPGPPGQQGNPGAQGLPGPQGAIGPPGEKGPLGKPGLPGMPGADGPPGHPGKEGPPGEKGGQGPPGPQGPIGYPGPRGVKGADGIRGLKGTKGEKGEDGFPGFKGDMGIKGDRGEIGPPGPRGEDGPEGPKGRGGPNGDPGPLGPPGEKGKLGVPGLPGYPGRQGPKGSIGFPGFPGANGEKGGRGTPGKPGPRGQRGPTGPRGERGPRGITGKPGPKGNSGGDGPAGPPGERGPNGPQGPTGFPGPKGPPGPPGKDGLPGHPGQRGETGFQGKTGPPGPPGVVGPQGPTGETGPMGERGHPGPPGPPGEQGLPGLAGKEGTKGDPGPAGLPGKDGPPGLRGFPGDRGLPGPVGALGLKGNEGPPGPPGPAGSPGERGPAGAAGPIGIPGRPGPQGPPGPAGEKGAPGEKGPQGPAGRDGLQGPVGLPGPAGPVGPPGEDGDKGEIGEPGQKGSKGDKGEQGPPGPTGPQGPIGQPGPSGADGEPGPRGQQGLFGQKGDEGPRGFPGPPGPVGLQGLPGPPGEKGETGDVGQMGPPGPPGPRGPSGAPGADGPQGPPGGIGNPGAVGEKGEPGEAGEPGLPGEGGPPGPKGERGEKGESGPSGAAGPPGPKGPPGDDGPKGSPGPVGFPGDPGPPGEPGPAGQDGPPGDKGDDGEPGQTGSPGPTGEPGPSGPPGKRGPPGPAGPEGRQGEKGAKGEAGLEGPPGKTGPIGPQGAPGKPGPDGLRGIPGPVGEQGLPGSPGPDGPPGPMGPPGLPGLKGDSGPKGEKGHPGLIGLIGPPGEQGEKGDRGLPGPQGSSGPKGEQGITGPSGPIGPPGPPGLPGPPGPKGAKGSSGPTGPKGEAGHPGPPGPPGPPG
T2 sequence (P05997 216-1229, chain 2 of 2, further chain): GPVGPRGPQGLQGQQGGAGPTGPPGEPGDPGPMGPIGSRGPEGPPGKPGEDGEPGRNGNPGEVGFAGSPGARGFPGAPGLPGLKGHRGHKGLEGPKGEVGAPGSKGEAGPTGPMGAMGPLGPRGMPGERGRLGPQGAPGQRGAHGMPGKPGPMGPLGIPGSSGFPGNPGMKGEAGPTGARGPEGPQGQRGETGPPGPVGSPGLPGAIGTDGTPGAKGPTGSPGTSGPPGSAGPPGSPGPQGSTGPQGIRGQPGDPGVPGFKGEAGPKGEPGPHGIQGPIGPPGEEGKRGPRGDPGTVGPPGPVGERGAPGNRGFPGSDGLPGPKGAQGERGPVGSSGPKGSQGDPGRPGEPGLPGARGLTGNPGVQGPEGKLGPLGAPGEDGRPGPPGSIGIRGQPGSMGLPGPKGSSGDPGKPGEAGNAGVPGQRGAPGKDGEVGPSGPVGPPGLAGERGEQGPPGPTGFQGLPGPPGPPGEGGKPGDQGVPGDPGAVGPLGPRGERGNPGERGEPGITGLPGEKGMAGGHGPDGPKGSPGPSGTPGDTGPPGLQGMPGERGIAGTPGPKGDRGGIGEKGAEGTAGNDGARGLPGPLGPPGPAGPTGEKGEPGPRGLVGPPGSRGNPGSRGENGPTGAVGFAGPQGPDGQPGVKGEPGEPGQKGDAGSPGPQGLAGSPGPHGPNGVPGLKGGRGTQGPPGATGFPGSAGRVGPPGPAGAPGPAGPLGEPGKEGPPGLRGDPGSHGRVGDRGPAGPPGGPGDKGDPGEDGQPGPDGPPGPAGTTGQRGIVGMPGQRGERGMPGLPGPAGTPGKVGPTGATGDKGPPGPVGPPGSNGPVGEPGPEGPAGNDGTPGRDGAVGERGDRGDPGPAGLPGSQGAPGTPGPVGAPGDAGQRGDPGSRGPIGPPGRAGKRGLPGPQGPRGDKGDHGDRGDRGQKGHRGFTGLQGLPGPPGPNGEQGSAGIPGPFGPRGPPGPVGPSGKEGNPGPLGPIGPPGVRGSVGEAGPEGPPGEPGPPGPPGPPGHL
T1 sequence (P02452 162-1218, chain 1 of 2): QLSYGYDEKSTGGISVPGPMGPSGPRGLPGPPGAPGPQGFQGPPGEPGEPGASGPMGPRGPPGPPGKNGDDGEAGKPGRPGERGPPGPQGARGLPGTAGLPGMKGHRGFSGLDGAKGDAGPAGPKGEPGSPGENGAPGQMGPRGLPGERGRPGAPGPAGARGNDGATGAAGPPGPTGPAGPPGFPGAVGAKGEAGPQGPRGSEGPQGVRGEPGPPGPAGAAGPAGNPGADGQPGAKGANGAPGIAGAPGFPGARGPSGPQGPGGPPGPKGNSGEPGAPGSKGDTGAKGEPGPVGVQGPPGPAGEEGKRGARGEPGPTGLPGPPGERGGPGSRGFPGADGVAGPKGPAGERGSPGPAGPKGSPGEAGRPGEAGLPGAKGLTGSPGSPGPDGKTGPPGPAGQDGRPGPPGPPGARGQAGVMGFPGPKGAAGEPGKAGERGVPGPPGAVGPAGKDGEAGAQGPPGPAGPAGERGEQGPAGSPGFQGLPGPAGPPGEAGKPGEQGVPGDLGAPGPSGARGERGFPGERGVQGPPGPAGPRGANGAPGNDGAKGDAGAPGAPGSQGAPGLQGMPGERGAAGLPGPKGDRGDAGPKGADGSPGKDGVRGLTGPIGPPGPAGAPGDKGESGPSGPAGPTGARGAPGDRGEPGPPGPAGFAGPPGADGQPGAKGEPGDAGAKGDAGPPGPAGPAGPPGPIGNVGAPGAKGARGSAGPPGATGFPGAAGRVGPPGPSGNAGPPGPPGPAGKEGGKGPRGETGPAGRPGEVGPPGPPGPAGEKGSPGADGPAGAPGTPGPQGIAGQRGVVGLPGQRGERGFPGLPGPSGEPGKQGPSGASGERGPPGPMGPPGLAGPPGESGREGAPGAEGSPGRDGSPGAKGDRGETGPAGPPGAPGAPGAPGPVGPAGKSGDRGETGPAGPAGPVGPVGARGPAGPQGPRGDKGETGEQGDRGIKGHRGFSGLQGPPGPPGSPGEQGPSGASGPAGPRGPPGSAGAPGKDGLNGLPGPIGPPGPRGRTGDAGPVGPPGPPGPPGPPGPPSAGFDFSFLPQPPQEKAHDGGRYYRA
T1 sequence (P08123 80-1119, chain 2 of 2, further chain): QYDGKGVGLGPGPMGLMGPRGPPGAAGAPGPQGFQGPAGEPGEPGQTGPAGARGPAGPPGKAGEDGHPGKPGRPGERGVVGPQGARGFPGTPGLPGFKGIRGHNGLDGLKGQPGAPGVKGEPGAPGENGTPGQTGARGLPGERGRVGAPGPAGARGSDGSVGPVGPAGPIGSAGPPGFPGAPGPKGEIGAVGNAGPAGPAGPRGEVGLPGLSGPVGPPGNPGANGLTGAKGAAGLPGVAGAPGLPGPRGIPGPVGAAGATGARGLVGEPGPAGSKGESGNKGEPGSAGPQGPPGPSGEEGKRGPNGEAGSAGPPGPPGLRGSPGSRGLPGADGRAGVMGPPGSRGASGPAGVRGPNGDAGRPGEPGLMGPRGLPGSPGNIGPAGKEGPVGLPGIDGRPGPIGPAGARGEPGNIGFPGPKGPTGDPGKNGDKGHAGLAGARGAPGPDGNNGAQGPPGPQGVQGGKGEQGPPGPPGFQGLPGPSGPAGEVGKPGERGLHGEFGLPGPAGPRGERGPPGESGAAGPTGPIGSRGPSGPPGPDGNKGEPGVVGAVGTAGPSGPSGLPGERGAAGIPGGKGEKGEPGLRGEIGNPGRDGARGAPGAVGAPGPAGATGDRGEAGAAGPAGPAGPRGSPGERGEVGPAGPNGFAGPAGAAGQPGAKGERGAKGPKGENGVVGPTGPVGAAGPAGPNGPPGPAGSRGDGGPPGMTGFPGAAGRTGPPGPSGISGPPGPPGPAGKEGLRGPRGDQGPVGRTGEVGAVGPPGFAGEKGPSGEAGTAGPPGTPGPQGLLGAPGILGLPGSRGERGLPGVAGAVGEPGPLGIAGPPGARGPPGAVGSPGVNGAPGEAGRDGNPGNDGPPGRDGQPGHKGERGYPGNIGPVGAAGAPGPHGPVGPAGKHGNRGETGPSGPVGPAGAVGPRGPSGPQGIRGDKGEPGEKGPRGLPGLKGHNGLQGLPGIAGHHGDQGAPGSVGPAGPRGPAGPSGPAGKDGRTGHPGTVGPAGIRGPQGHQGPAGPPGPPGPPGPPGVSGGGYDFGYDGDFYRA

B1: CID 212704 (SEQ ID NO: 42), tetramer of SEQ ID NO: 15 (designed binder)
chain: IAAKFDEAQQAADKEILHLPNLTEQQRNYFRQWLRDDPSVSPTVLGTAQQLNDSQAPKIAAKFDEAQQAADKEILHLPNLTEQQRNYFRQWLRDDPSVSPTVLGTAQQLNDSQAPKGGGSIAAKFDEAQQAADKEILHLPNLTEQQRNYFRQWLRDDPSVSPTVLGTAQQLNDSQAPKIAAKFDEAQQAADKEILHLPNLTEQQRNYFRQWLRDDPSVSPTVLGTAQQLNDSQAPKSAWSHPQFEK
notes: not shown: C-terminal Strep-tag (detected with anti-StrepTag antibody)
B1: no binding (tested: 100 nM) [1]; no binding (tested: 100 nM) [2].
